# The full ranking holds about 1,800 sequences; the median of “median log2 fold change of GCK-ALFA target abundance (FLAG IP / Myc IP barcode read proportion)” is about 0.14, and the lowest 2% start at about -0.84. Some of the results follow.
# T1: TRAF2, Q12933
# T1 chain: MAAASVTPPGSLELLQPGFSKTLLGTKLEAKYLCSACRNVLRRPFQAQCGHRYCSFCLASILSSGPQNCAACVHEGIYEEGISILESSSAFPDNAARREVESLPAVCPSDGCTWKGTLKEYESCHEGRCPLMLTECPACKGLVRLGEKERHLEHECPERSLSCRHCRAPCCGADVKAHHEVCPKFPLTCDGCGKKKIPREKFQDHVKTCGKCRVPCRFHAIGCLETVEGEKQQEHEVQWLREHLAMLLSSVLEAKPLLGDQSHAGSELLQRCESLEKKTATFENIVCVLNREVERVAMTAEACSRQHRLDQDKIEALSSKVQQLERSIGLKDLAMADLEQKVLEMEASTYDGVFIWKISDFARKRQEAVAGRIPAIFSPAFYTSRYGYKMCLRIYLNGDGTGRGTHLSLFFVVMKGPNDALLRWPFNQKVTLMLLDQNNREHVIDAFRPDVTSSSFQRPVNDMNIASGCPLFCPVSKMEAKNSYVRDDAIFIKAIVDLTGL
# B1: traf2_out_6_156_2421 (protein)
# chain: MKEEILKEAEEKIKELIKKLAKASEEKKIRYISEIAGAVYRALQKMREAGASVEEIKEAVERLEKVAKEEAKKAGLPQETIDLLLASIRAVGEVALREAE
# B2: traf2_out_13_95_1155 (protein)
# chain: SKELAEKIMEIADRMLDEALAVLDELLAAAKAAGKLEEEVARARHLAEHHSINEAIALLRELAKAHPEFKEELDAAIARLEALRREAGREVAELIKKEKE
# B3: traf2_out_6_156_2411 (protein)
# chain: MVEEIFKETMEKVKKLIKELAKASEEKKIQYISKIAGEVYKALQKLREAGASLEEIKEFSERLKKEIKALAEEAGLPEETRNLLLSAVNAVFEVAIEEAK
# B4: traf2_out_18_3_1905 (protein)
# chain: KEKERQELSDKIDEIVDEAEARAREVLARLKAAHPEVAAELDALEADLAAGGGAFGVLEALAELARRLGEEELAAEIEAFIREKRKKFQELVDKYEELIK
# B5: traf2_out_18_117_1766 (protein)
# chain: MTREEIIERLEEIAEELGRKASELGKLMLENWEKLSPEEKSEIMDVLADLTEVRREALELIARIRAGEIPVEEAIERAEEIEKRAKEALEKAEKMIEKIK
# B6: traf2_out_5_63_2346 (protein)
# chain: SEREELTALAREADRLAREIIAAAKAGDEARAAALLKRAVEDPELARLVLGILKGEAKYYKLLGDKPEEAAIAERLAAELEALAAERAAAEAAAAAAAAA
# B7: traf2_out_20_3_2223 (protein)
# chain: EELKREIEEELRKIEELLEKAKPLLPEEDYKKLKELLEKAREALETDLTDALVYLSELRRLALELAQEARAAGNEELAKLLEEMAERANRAAGLVLKAIE
# B8: traf2_out_15_180_1325 (protein)
# chain: MTEEELEKRIELANKVADKAQDRLAALLAAHPDLTPEERAALRALARSLTTLYMNGEEEEAAAALEAAKARLSPRAAAVADELAEFIKEEVKKAKEELKK
# B9: traf2_out_11_155_758 (protein)
# chain: DTLRAKANAINDAAMEIADKIDAFIEEVIAEVEKEDPEVAKRIRAALEKHRDASARSKALIVARVLKEAGYEEKAKRVEEFLEKAQKELNKKVKEIEEAA
# B10: traf2_out_16_62_1466 (protein)
# chain: EEEKERLLEEADEKIDAAQELRDAVITYVSGGDREAALAKIEELAKKYGPLVKELLEALKKAEADPENREEYLAKALELATEVRTRLVKEALRLEEEAKK
# B11: traf2_out_13_95_1127 (protein)
# chain: SAETAKKIMEVADEMIDKSIAILEALKAKMEAKGLLKEEMDEVLHLAKYQSIREAIHKLKELAKAHPEVAADLNAAIAELEALIREAGKRVAEILKEEQE
# B12: traf2_out_1_27_1006 (protein)
# chain: STEEERRLLREANRAIGRASPEEAVEIIRRAVREALERGLDSPLHIATVLILSLGDEETRERALEAVEEVLREAGVSEEEIALLRERVRSGWERRDRLLA
# B13: traf2_out_20_3_2073 (protein)
# chain: EELLKQLEEELDKALALLKEAAALADPETAAELNALIAELKASRSLSISDRLVTISEVRRRVLELRERALAAGREELAAVLDKAADALNRAAQLAYKILQ
# B14: traf2_out_6_156_2419 (protein)
# chain: KKEEILKKTLEEIKKLIKELSKASEEKKIAYISKIAGTVKRGLEELRKLGASKEEIKEFVEKVKKEAKEEAKKEGLDESTINLLLSSINAVGDVAIREAE
# B15: traf2_out_13_95_1103 (protein)
# chain: SEETAKKIMEVADKMLDKVEELLEKLLEKAKKAGKLEEEIEKALHLARYQSINEAIHLLKELAKKYPEFKEELEETIKEIEALRKQAGKEVAKIIKEEKE
# B16: traf2_out_19_16_1991 (protein)
# chain: SEEEAKKLREEMKKHLDEALKLAKEAVENLEELSREELMDALVEISELVRKAKEALQKFLELAKDDPELRKEVTEEFDEKLDEIQRLMTIIVDRIEELLK
# B17: traf2_out_11_104_647 (protein)
# chain: LTREQAREFNDFAMEARDRAAALLARVAEHLRAAGHEEEAARVEALLAHPGSGISSFRNLLEELLPRLDPESAAVARAAIAELEALQKEVSEKLNELEKK
# B18: traf2_out_6_156_2427 (protein)
# chain: MVEEILKETLKEIKELIKELSKASEEKKIRYINKIAGTVYRALQKLREIGASVEELKKFGEEVIKKAKEWAKEEGLPESTINLLLSSLNAVTDVAIAEAK
# B19: traf2_out_14_154_1270 (protein)
# chain: DELWAELEYHSAMRRLYDSVVESMERLSVEETIAHLRAATDLVVARVPEKAEEIRARAAEIEARLAGSPEEREALLKELKAKAEEEAKKAREAFKEIEKK
# B20: traf2_out_20_3_2255 (protein)
# chain: EELREKALEALEKAEKILKELEPKLPEEDAKALKEALEKAREAFETDYRDALVYVSELRRLALELAEKARAAGDEETAKKLEELAEEAQRAAYYLSKIIE
# B21: traf2_out_17_162_1473 (protein)
# chain: MSIEERVAALEAELAALREERERLEKELERLEEMSKEEITDLLVRASEARRRARQLAEEFRALAPEIGEERAAALAAEAEAVAEELQRIANKIYEELEKK
# B22: traf2_out_18_117_1774 (protein)
# chain: SEREEIIERLERLAEELGRAASRLGKAVLENWEKLTPEEKSEAMDVLADLSRVRREALELIHRIREEGLPLEEARREAERLEEEARRALERAEAMLKRIE
# B23: traf2_out_6_156_2392 (protein)
# chain: TAEAILAETKAKLEELIEKMSKASEEKKIIYINKIAGVVYRALQRLRDAGASLEELEAFAAEVRAHLKEYADKYGLDEDTKNLLLSSINAVFDVALAEAK
# B24: traf2_out_11_169_790 (protein)
# chain: EEKERNRKIIDKALELNDEAKKKLKEKALELAKEAGLDVEEVKAIFEKHKNASFSAIAAALIAWFRSKGAEEAAAKLEEFYDELRDERNKKFSAFLKSLE
# B25: traf2_out_17_162_1535 (protein)
# chain: SPTEEKLKKLKKELEKLEEKKKELEEKLKKLKELSKEEITDLLVEASELKRKALELAEELEKLAKETGSPEAKKLAEKAKKLAEELQKIANKIYKELEKK
# B26: traf2_out_17_178_1742 (protein)
# chain: SKEEILKKISEYADELLDVSRDAAARLRAIAEAEGVLTPELRARLDEVARNSNVYALEEVAREVIARTSRAAEVQALLDETTAKMKELNKKIQEAVEKLE
# B27: traf2_out_17_178_1713 (protein)
# chain: SKEEARKEISAATDEMIDLAEAAAARLLEIAEADGSLSPEELAALRRARRLGSARTTLALMRAAIPKSPRAAEVQALLDEFEARYRELSKKIAEALKKYE
# B28: traf2_out_20_3_2139 (protein)
# chain: SELQKELEKQKAEALKLLKEAAKLADPETAARLKELAKRLKASKELSVSDQLVEFSEIRREVLELAEEARRAGKEELAALLEAAADALNKAMNILMQILE
# B29: traf2_out_16_104_1396 (protein)
# chain: EEEKQKEFEKIIEEAEKIAEELGRLANEIYKMMLKASEEEKKKLSDLLVEASEVRREALEFAVETKEELKKGGDLEKAKKKLEELKKKAKEVKEKAKELK
# Molecular target: T1, TRAF2, Q12933
# Test: median log2 fold change of GCK-ALFA target abundance (FLAG IP / Myc IP barcode read proportion) (log2 ratio); each designed protein is fused to an ALFA-tag nanobody in HEK293 cells to bring the named protein to FLAG-tagged glucokinase (GCK); Myc marks an untargeted standard; higher = target protein stabilised (more abundant)
# Details: target protein: 3xFLAG-MCP-GCK-ALFA reporter; HEK293 landing pad (RPLP)
# Method in brief: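 HEK293 landing-pad cells received a recombined binder library fused to the ALFA nanobody and were induced with 2 μg mL^−1 doxycycline, then transfected with a plasmid encoding a FLAG-tagged target and a Myc-tagged standard. Lysates were collected after 48 h for anti-FLAG and anti-Myc immunoprecipitation, and the circular RNA barcodes were reverse transcribed, amplified and sequenced. Target abundance for each binder is the median log2 ratio of FLAG to Myc barcode read proportions. Barcodes had to reach a proportion of at least 10^−7 in both replicates, each binder needed at least 3 barcodes per replicate, a pseudocount of 10^−6 was applied, and the two replicates were pooled.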
row,Binder,median log2 fold change
1,B1,-0.0921
2,B2,-0.372
3,B3,-0.15
4,B4,0.114
5,B5,0.128
6,B6,-0.285
7,B7,0.163
8,B8,0.414
9,B9,0.218
10,B10,0.00239
11,B11,-0.427
12,B12,0.209
13,B13,-0.332
14,B14,0.174
15,B15,-1.3
16,B16,0.0861
17,B17,0.215
18,B18,-0.0638
19,B19,0.199
20,B20,0.327
21,B21,0.295
22,B22,-0.189
23,B23,0.0835
24,B24,-0.562
25,B25,-0.0456
26,B26,0.154
27,B27,-0.272
28,B28,0.217
29,B29,0.0988

# Reference: the supplement of paper PMC12632987
